Substitutions are numbered along the chain they refer to. Names and notes keep the numbering of the source.

For orientation: EC50 (read off the curve) means the concentration at which the effect is half-maximal. Read a low EC50 (read off the curve) as a more potent agent. The term koff denotes the first-order rate constant of dissociation.

The target in experiment [1] is T1, human PD-L1 on cells (SCC152/PD-L1, K562/OKT3/PD-L1, HCC827, A704) (human, UniProt Q9NZQ7).
T1 construct: whole, on cells; SCC152 and K562 cells were transduced with PD-L1; HCC827 and A704 are used without a stated transduction of PD-L1; also called cell-surface PD-L1
The experiment can be described thus: flow cytometry on HCC827 cells (PD-L1 65K copies), APC anti-human Fc, median fluorescence intensity. How it is done:
Cells were spun down and resuspended in staining buffer (PBS (phosphate buffered saline), 1% BSA (bovine serum albumin), 1 mM EDTA, and 0.1% sodium azide) for 20 minutes to block non-specific binding. […] Primary staining was performed on ice for 60 minutes, before washing cells in […] staining buffer three times. […] Samples were analyzed CytoFLEX LX flow cytometer (Beckman Coulter, USA). Median Fluorescence Intensity (MFI) was calculated for each cell type using the CytExpert software from Beckman Coulter.
On the technique in general: A flow cytometer gives signals particle by particle.

In experiment [2] the target is T2, human PD-L1 (human, UniProt Q9NZQ7).
T2 construct: whole, on cells
Put plainly: flow cytometry, SCC152 cells transduced with human PD-L1; MFI against WT CD80 ECD-Fc. How it is done: (§1) Binding affinity to CD28 was determined using primary human T cells which endogenously express CD28. Binding to PD-L1 was determined using SCC152 cells transduced with human PD-L1. Binding to CTLA-4 was measured using Chinese hamster ovary (CHO) cells stably transduced to express human CTLA-4.
(§2) For staining and analysis by flow cytometry, 75,000 human T cells, SCC152/PD-L1 cells, or CHO/CTLA-4 cells were plated in 96-well round-bottom plates. Cells were spun down and resuspended in staining buffer (PBS (phosphate buffered saline), 1% BSA (bovine serum albumin), 1 mM EDTA, and 0.1% sodium azide) for 20 minutes to block non-specific binding. Afterwards, cells were centrifuged, stain buffer aspirated, and then resuspended in 50 μL of a 1:5 serial dilution of each CD80-Fc candidate variant starting at 100 nM ending at 0.8 nM. Primary staining was performed on ice for 60 minutes, before washing cells in […] staining buffer three times. PE-conjugated anti-human Fc (Jackson ImmunoResearch, USA) was diluted 1:250 in 50 μL staining buffer and added to cells and incubated another 30 minutes at 4° C. Cells were washed two times in 150 μL stain buffer and then fixed in 2% formaldehyde/PBS for 5 minutes at room temperature. Samples were analyzed CytoFLEX LX flow cytometer (Beckman Coulter, USA). Median Fluorescence Intensity (MFI) was calculated for each cell type using the CytExpert software from Beckman Coulter.
(§3) Binding assays were carried out to assess the specificity and affinity of multivalent proteins to cell-expressed CTLA-4, CD28, and PD-L1 counter structures.

Experiment [3] addresses T2, human PD-L1. Put plainly: flow cytometry, SCC152 cells transduced with human PD-L1, anti-human Fc detection. How it is done:
as §1, §2, §3

In experiment [4] the target is rhu PD-L1 (soluble PD-L1 analyte of the SPR experiments) (human, UniProt Q9NZQ7 in part, limits assumed). Put plainly: SPR (Biacore), variant CD80-Fc captured, PD-L1 as analyte, 120 s association and 240 s dissociation. On the technique in general: Surface plasmon resonance follows binding to a sensor surface in real time, without labels.
In experiment [5] the target is T2, human PD-L1. Put plainly: flow cytometry, SCC152 cells transduced with human PD-L1; the reference itself.
Experiment [6] has as its target CD28 on Jurkat/IL2-reporter cells (UniProt P10747 19-220, limits assumed). The experiment can be described thus: cell-based or functional assay.

T2 sequence (Q9NZQ7 19-290): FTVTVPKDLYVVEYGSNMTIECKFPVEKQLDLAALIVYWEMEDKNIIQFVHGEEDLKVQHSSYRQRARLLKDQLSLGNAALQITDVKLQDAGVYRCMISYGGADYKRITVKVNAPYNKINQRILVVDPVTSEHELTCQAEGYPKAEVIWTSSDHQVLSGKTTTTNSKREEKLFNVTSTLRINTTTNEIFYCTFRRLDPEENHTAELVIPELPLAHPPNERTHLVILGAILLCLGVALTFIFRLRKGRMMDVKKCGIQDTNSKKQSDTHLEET

B1: CD80-CD80-Fc_337 (tandem, E10G, V11W, T28Y, M47L) (Fc fusion)
chain: VIHVTKEVKGWATLSCGHNVSVEELAQYRIYWQKEKKMVLTMMSGDLNIWPEYKNRTIFDITNNLSIVILALRPSDEGTYECVVLKYEKDAFKREHLAEVTLSVKADGGGGSGGGGSGGGGSVIHVTKEVKGWATLSCGYNVSVEELAQYRIYWQKEKKMVLTMMSGDLNIWPEYKNRTIFDITNNLSIVILALRPSDEGTYECVVLKYEKDAFKREHLAEVTLSVKADGSGGGGS[omitted - human IgG4 Fc with S228P (EU numbers)]
notes: Tetravalent after dimerization of the Fc chains
In the case of B1, the “EC50 (read off the curve)” value in experiment [1] was roughly 0.5 nM.

B2: CD80-CD80-Fc_340 (CD80_185 V11Y/T28Y/M47L; CD80_416) (Fc fusion)
chain: B1 chain with G10E, W11Y, G132E, W133Y
notes: tandem format, tetravalent
With B2, in the experiment with human PD-L1 [2], the “fold change vs WT CD80 @20 nM” value came to 12.6 fold. Also, in the experiment with human PD-L1 [3], the “Anti-Human Fc (MFI) at 0.8 nM” value was found to be 5100 MFI, the “Anti-Human Fc (MFI) at 4 nM” value was found to be 7790 MFI, the “Anti-Human Fc (MFI) at 20 nM” value turned out to be 8600 MFI and the “Anti-Human Fc (MFI) at 100 nM” value was 9020 MFI.

B3: CD80-CD80-Fc_337 (CD80_180 E10G/V11W/T28Y/M47L; CD80_415) (Fc fusion)
chain: B1 chain
notes: tandem format, tetravalent after Fc dimerization
In the case of B3, the “fold change vs WT CD80 @20 nM” value with human PD-L1 [2] came to 12.8 fold. In the experiment with human PD-L1 [3], the “Anti-Human Fc (MFI) at 0.8 nM” value was determined as 5340 MFI, the “Anti-Human Fc (MFI) at 4 nM” value was 7860 MFI, the “Anti-Human Fc (MFI) at 20 nM” value was 8720 MFI and the “Anti-Human Fc (MFI) at 100 nM” value came out at 8660 MFI.

B4: CD80-CD80-Fc_342 (CD80_197 V11Y/E35D/Y87Q/T101R) (Fc fusion)
chain: VIHVTKEVKEYATLSCGHNVSVEELAQTRIYWQKDKKMVLTMMSGDMNIWPEYKNRTIFDITNNLSIVILALRPSDEGTYECVVLKQEKDAFKREHLAEVRLSVKADGGGGSGGGGSGGGGSVIHVTKEVKEYATLSCGYNVSVEELAQTRIYWQKDKKMVLTMMSGDMNIWPEYKNRTIFDITNNLSIVILALRPSDEGTYECVVLKQEKDAFKREHLAEVRLSVKADGSGGGGS[omitted - human IgG4 Fc with S228P (EU numbers)]
notes: tandem format, tetravalent
Regarding B4, the “fold change vs WT CD80 @20 nM” value with human PD-L1 [2] amounted to 11 fold. In addition, in the experiment with human PD-L1 [3], the “Anti-Human Fc (MFI) at 0.8 nM” value stood at 2200 MFI, the “Anti-Human Fc (MFI) at 4 nM” value came to 5460 MFI, the “Anti-Human Fc (MFI) at 20 nM” value came out at 7500 MFI and the “Anti-Human Fc (MFI) at 100 nM” value came to 7630 MFI.

B5: CD80-CD80-Fc_340 (tandem, V11Y, T28Y, M47L) (Fc fusion)
chain: B1 chain with G10E, W11Y, G132E, W133Y
notes: as for B1
B5: the “EC50 (read off the curve)” value in experiment [1] was roughly 0.5 nM.

B6: CD80_185-Fc (V11Y, T28Y, M47L) (Fc fusion)
chain: VIHVTKEVKEYATLSCGHNVSVEELAQYRIYWQKEKKMVLTMMSGDLNIWPEYKNRTIFDITNNLSIVILALRPSDEGTYECVVLKYEKDAFKREHLAEVTLSVKADGSGGGGS[omitted - human IgG4 Fc with S228P (EU numbers)]
The molecule B6 registered a koff in experiment [4] of 0.0139 s⁻¹.

B7: CD80_233-Fc (V11Y, T28Y, M47L, V68M) (Fc fusion)
chain: B6 chain with V68M
Turning to B7, the “EC50 (read off the curve)” value in experiment [1] is roughly 4 nM.

B8: CD80_236-Fc (V11Y, T28Y, M47L, A71G) (Fc fusion)
chain: B6 chain with A71G
Turning to B8, the “EC50 (read off the curve)” value in experiment [1] was roughly 6 nM.

B9: CD80_234-Fc (V11Y, T28Y, M47L, V68L) (Fc fusion)
chain: B6 chain with V68L
B9: in experiment [4], the koff turned out to be 0.00863 s⁻¹. In experiment [1], the “EC50 (read off the curve)” value was roughly 6 nM.

B10: CD80_240-Fc (V11Y, T28Y, D46E, M47V, V68M) (Fc fusion)
chain: B6 chain with D46E, L47V, V68M
Consider B10, for which, in experiment [4], the koff is 0.0167 s⁻¹.

B11: CD80_184-Fc (V11Y, A26Q, M47L, A71G, Y87R) (Fc fusion)
chain: B6 chain with A26Q, Y28T, A71G, Y87R
Consider B11, for which the koff in experiment [4] was found to be 0.0072 s⁻¹.

B12: CD80-CD80-Fc_414 (tandem, V11Y, T28Y, M47L, A71G) (Fc fusion)
chain: VIHVTKEVKEYATLSCGHNVSVEELAQYRIYWQKEKKMVLTMMSGDLNIWPEYKNRTIFDITNNLSIVILGLRPSDEGTYECVVLKYEKDAFKREHLAEVTLSVKADGGGGGSGGGGSGGGGSVIHVTKEVKEYATLSCGYNVSVEELAQYRIYWQKEKKMVLTMMSGDLNIWPEYKNRTIFDITNNLSIVILGLRPSDEGTYECVVLKYEKDAFKREHLAEVTLSVKADGSGGGGS[omitted - human IgG4 Fc with S228P (EU numbers)]
notes: as for B1
In the case of B12, in experiment [1], the “EC50 (read off the curve)” value was roughly 0.5 nM.

B13: WT CD80 ECD-Fc IgG4 (Fc fusion)
chain: VIHVTKEVKEVATLSCGHNVSVEELAQTRIYWQKEKKMVLTMMSGDMNIWPEYKNRTIFDITNNLSIVILALRPSDEGTYECVVLKYEKDAFKREHLAEVTLSVKADFPTPSISDFEIPTSNIRRIICSTSGGFPEPHLSWLENGEELNAINTTVSQDPETELYAVSSKLDFNMTTNHSFMCLIKYGHLRVNQTFNWNTTKQEHFPDNGSGGGGS[omitted - human IgG4 Fc with S228P (EU numbers)]
notes: also called wildtype CD80 ECD-Fc
With B13, in the experiment with human PD-L1 [3], the “Anti-Human Fc (MFI) at 0.8 nM” value amounted to 644 MFI, the “Anti-Human Fc (MFI) at 4 nM” value worked out at 652 MFI and the “Anti-Human Fc (MFI) at 100 nM” value is 637 MFI. Besides, in the experiment with human PD-L1 [5], the “fold change vs WT CD80 @20 nM” value came to 1 fold. Moreover, in experiment [6], the “Fold Increase over WT at 50 nM” value came to 1 fold, the “Rel. Luminescence Units (RLU) 2 nM” value came out at 2830 RLU, the “Rel. Luminescence Units (RLU) 10 nM” value was found to be 2660 RLU and the “Rel. Luminescence Units (RLU) 50 nM” value came out at 2440 RLU. Besides, the “Rel. Luminescence Units (RLU) 250 nM” value in experiment [6] came to 2640 RLU.

The values above are taken from US20250243260A1 (ALPINE IMMUNE SCIENCES, published 2025).
